Patent US11685745B2, “Substituted benzoxazole and benzofuran compounds as PDE7 inhibitors” (Dart NeuroScience, LLC, priority 2017, dated 2023)

target: N-terminal truncated recombinant human PDE7B enzyme (Homo sapiens (Human), UniProt Q9NP56); assay: biochemical

SMILES	IC50 [µM]
CC(=O)N1CCN(Cc2nc3cc(Cl)c4c(c3o2)C2(CCCCC2)NC(=O)N4)CC1 [Example 47, 2-[(4-Acetylpiperazin-1-yl)methyl]-5-chloro-7,8-dihydro-6H-spiro[[1,3]oxazolo[5,4-f]quinazoline-9,1′-cyclohexane]-7-one]	0.01 to 0.1
CNC(=O)C1CCN(C(=O)c2cc3cc(Cl)c4c(c3o2)C2(CCCCC2)NC(=O)N4)CC1 [Example 444, 1-({5′-Chloro-7′-oxo-7′,8′-dihydro-6′H-spiro[cyclohexane-1,9′-furo[2,3-f]quinazoline]-2′-yl}carbonyl)-N-methylpiperidine-4-carboxamide]	0.01 to 0.1
CN1CC2CN(Cc3nc4cc(Cl)c5c(c4o3)C3(CCCCC3)NC(=O)N5)CC2C1 (stereo not shown) [Example 114, 5-Chloro-2-({5-methyl-octahydropyrrolo[3,4-c]pyrrol-2-yl}methyl)-7,8-dihydro-6H-spiro[[1,3]oxazolo[5,4-f]quinazoline-9,1′-cyclohexane]-7-one]	0.1 to 1
COCCN(CCOC)c1nc2cc(Cl)c3c(c2o1)C1(CCCCC1)NC(=O)N3 [Example 24, 2′-(Bis(2-methoxyethyl)amino)-5′-chloro-6′H-spiro[cyclohexane-1,9′-oxazolo[5,4-f]quinazolin]-7′(8′H)-one]	0.1 to 1
COC[C@H]1CCN(Cc2nc3cc(Cl)c4c(c3o2)C2(CCCCC2)NC(=O)N4)C1 [Example 135, 5-Chloro-2-{[(3S)-3-(methoxymethyl)pyrrolidin-1-yl]methyl}-7,8-dihydro-6H-spiro[[1,3]oxazolo[5,4-f]quinazoline-9,1′-cyclohexane]-7-one]	0.01 to 0.1
COC1(C)CCN(Cc2nc3cc(Cl)c4c(c3o2)C2(CCCCC2)NC(=O)N4)CC1 [Example 77, 5-Chloro-2-[(4-methoxy-4-methylpiperidin-1-yl)methyl]-7,8-dihydro-6H-spiro[[1,3]oxazolo[5,4-f]quinazoline-9,1′-cyclohexane]-7-one]	0.01 to 0.1
CN(C)CCCN(C)Cc1cc2cc(Cl)c3c(c2o1)C1(CCCCC1)NC(=O)N3 [Example 508, 5′-Chloro-2′-({[3-(dimethylamino)propyl](methyl)amino}methyl)-7′,8′-dihydro-6′H-spiro[cyclohexane-1,9′-furo[2,3-f]quinazoline]-7′-one]	0.1 to 1
COCCN1CCN(Cc2cc3cc(Cl)c4c(c3o2)C2(CCCCC2)NC(=O)N4)CC1 [Example 513, 5′-Chloro-2′-{[4-(2-methoxyethyl)piperazin-1-yl]methyl}-7′,8′-dihydro-6′H-spiro[cyclohexane-1,9′-furo[2,3-f]quinazoline]-7′-one]	0.1 to 1
O=C1Nc2c(Cl)cc3nc(C(=O)N[C@@H]4CCOC4)oc3c2C2(CCCCC2)N1 [Example 220, 5-Chloro-7-oxo-N-[(3R)-oxolan-3-yl]-7,8-dihydro-6H-spiro[[1,3]oxazolo[5,4-f]quinazoline-9,1′-cyclohexane]-2-carboxamide]	0.01 to 0.1
O=C1Nc2c(Cl)cc3cc(C(=O)N4C[C@@H]5[C@H](C4)[C@H]5c4ccccn4)oc3c2C2(CCCCC2)N1 [Example 372, 5′-Chloro-2′-[(1R,5S,6S)-6-(pyridin-2-yl)-3-azabicyclo[3.1.0]hexane-3-carbonyl]-7′,8′-dihydro-6′H-spiro[cyclohexane-1,9′-furo[2,3-f]quinazoline]-7′-one]	0.01 to 0.1
O=C1Nc2c(Cl)cc3cc(C(=O)NCCC4CCOCC4)oc3c2C2(CCCCC2)N1 [Example 347, 5′-Chloro-N-[2-(oxan-4-yl)ethyl]-7′-oxo-7′,8′-dihydro-6′H-spiro[cyclohexane-1,9′-furo[2,3-f]quinazoline]-2′-carboxamide]	0.01 to 0.1
O=C1Nc2c(Cl)cc3cc(C(=O)NCc4ccsc4)oc3c2C2(CCCCC2)N1 [Example 436, 5′-Chloro-7′-oxo-N-(thiophen-3-ylmethyl)-7′,8′-dihydro-6′H-spiro[cyclohexane-1,9′-furo[2,3-f]quinazoline]-2′-carboxamide]	0.01 to 0.1
CCOCC1(CNCc2cc3cc(Cl)c4c(c3o2)C2(CCCCC2)NC(=O)N4)CC1 [Example 558, 5′-Chloro-2′-[({[1-(ethoxymethyl)cyclopropyl]methyl}amino)methyl]-7′,8′-dihydro-6′H-spiro[cyclohexane-1,9′-furo[2,3-f]quinazoline]-7′-one]	0.1 to 1
CN(C)C1CCN(Cc2cc3cc(Cl)c4c(c3o2)C2(CCCCC2)NC(=O)N4)C1 (stereo not shown) [Example 509, 5′-Chloro-2′-{[3-(dimethylamino)pyrrolidin-1-yl]methyl}-7′,8′-dihydro-6′H-spiro[cyclohexane-1,9′-furo[2,3-f]quinazoline]-7′-one]	0.1 to 1
O=C1Nc2c(Cl)cc3cc(C(=O)N4CCCC(Cn5ccnc5)C4)oc3c2C2(CCCCC2)N1 (stereo not shown) [Example 283, 5′-Chloro-2′-[3-(1H-imidazol-1-ylmethyl)piperidine-1-carbonyl]-7′,8′-dihydro-6′H-spiro[cyclohexane-1,9′-furo[2,3-f]quinazoline]-7′-one]	0.01 to 0.1
COC(=O)CNCc1nc2cc(Cl)c3c(c2o1)C1(CCCCC1)NC(=O)N3 [Example 131, Methyl 2-({5-chloro-7-oxo-7,8-dihydro-6H-spiro[[1,3]oxazolo[5,4-f]quinazoline-9,1′-cyclohexane]-2-ylmethyl}amino)acetate]	0.01 to 0.1

SMILES	IC50 [µM]
CC(C)C(=O)N1CCN(C(=O)c2cc3cc(Cl)c4c(c3o2)C2(CCCCC2)NC(=O)N4)CC1 [Example 460, 5′-Chloro-2′-[4-(2-methylpropanoyl)piperazine-1-carbonyl]-7′,8′-dihydro-6′H-spiro[cyclohexane-1,9′-furo[2,3-f]quinazoline]-7′-one]	0.01 to 0.1
CN(C)C1CCN(C(=O)c2nc3cc(Cl)c4c(c3o2)C2(CCCCC2)NC(=O)N4)CC1 [Example 194, 5-Chloro-2-[4-(dimethylamino)piperidine-1-carbonyl]-7,8-dihydro-6H-spiro[[1,3]oxazolo[5,4-f]quinazoline-9,1′-cyclohexane]-7-one]	0.01 to 0.1
CN(C)CCN(C)C(=O)c1nc2cc(Cl)c3c(c2o1)C1(CCCCC1)NC(=O)N3 [Example 193, 5-Chloro-N-[2-(dimethylamino)ethyl]-N-methyl-7-oxo-7,8-dihydro-6H-spiro[[1,3]oxazolo[5,4-f]quinazoline-9,1′-cyclohexane]-2-carboxamide]	0.1 to 1
CN1CCc2ccsc2C12CCN(C(=O)c1cc3cc(Cl)c4c(c3o1)C1(CCCCC1)NC(=O)N4)CC2 [Example 341, 5′-Chloro-2′-({6′-methyl-5′,6′-dihydro-4′H-spiro[piperidine-4,7′-thieno[2,3-c]pyridine]-1-yl}carbonyl)-7′,8′-dihydro-6′H-spiro[cyclohexane-1,9′-furo[2,3-f]quinazoline]-7′-one]	0.01 to 0.1
CC(C)CN(C)C(=O)c1cc2cc(Cl)c3c(c2o1)C1(CCCCC1)NC(=O)N3 [Example 250, 5′-Chloro-N-methyl-N-(2-methylpropyl)-7′-oxo-7′,8′-dihydro-6′H-spiro[cyclohexane-1,9′-furo[2,3-f]quinazoline]-2′-carboxamide]	0.01 to 0.1
CC(C)(C)N1CCN(C(=O)c2cc3cc(Cl)c4c(c3o2)C2(CCCCC2)NC(=O)N4)CC1 [Example 449, 2′-(4-tert-Butylpiperazine-1-carbonyl)-5′-chloro-7′,8′-dihydro-6′H-spiro[cyclohexane-1,9′-furo[2,3-f]quinazoline]-7′-one]	0.1 to 1
COc1ccc(CCNC(=O)c2cc3cc(Cl)c4c(c3o2)C2(CCCCC2)NC(=O)N4)cc1 [Example 445, 5′-Chloro-N-[2-(4-methoxyphenyl)ethyl]-7′-oxo-7′,8′-dihydro-6′H-spiro[cyclohexane-1,9′-furo[2,3-f]quinazoline]-2′-carboxamide]	0.01 to 0.1
O=C1Nc2c(Cl)cc3cc(C(=O)NC4CCC(F)(F)CC4)oc3c2C2(CCCCC2)N1 [Example 381, 5′-Chloro-N-(4,4-difluorocyclohexyl)-7′-oxo-7′,8′-dihydro-6′H-spiro[cyclohexane-1,9′-furo[2,3-f]quinazoline]-2′-carboxamide]	0.01 to 0.1
O=C1Nc2c(Cl)cc3cc(CN4CCC(O)C4)oc3c2C2(CCCCC2)N1 (stereo not shown) [Example 548, 5′-Chloro-2′-[(3-hydroxypyrrolidin-1-yl)methyl]-7′,8′-dihydro-6′H-spiro[cyclohexane-1,9′-furo[2,3-f]quinazoline]-7′-one]	0.1 to 1
O=C1Nc2c(Cl)cc3cc(C(=O)NCCCN4CCCC4)oc3c2C2(CCCCC2)N1 [Example 420, 5′-Chloro-7′-oxo-N-[3-(pyrrolidin-1-yl)propyl]-7′,8′-dihydro-6′H-spiro[cyclohexane-1,9′-furo[2,3-f]quinazoline]-2′-carboxamide]	0.1 to 1
O=C1Nc2c(Cl)cc3cc(C(=O)N4CCn5ccnc5C4)oc3c2C2(CCCCC2)N1 [Example 290, 5′-Chloro-2′-{5H,6H,7H,8H-imidazo[1,2-a]pyrazine-7-carbonyl}-7′,8′-dihydro-6′H-spiro[cyclohexane-1,9′-furo[2,3-f]quinazoline]-7′-one]	0.01 to 0.1
COc1ccccc1CNCc1nc2cc(Cl)c3c(c2o1)C1(CCCCC1)NC(=O)N3 [Example 91, 5-Chloro-2-({[(2-methoxyphenyl)methyl]amino}methyl)-7,8-dihydro-6H-spiro[[1,3]oxazolo[5,4-f]quinazoline-9,1′-cyclohexane]-7-one]	0.01 to 0.1
COCCNC(=O)c1cc2cc(Cl)c3c(c2o1)C1(CCCCC1)NC(=O)N3 [Example 249, 5′-Chloro-N-(2-methoxyethyl)-7′-oxo-7′,8′-dihydro-6′H-spiro[cyclohexane-1,9′-furo[2,3-f]quinazoline]-2′-carboxamide]	0.1 to 1
COc1ccc(CNC(=O)c2cc3cc(Cl)c4c(c3o2)C2(CCCCC2)NC(=O)N4)c(OC)c1 [Example 300, 5′-Chloro-N-[(2,4-dimethoxyphenyl)methyl]-7′-oxo-7′,8′-dihydro-6′H-spiro[cyclohexane-1,9′-furo[2,3-f]quinazoline]-2′-carboxamide]	0.1 to 1
COc1cc(CN(C)C(=O)c2cc3cc(Cl)c4c(c3o2)C2(CCCCC2)NC(=O)N4)cc(OC)c1 [Example 289, 5′-Chloro-N-[(3,5-dimethoxyphenyl)methyl]-N-methyl-7′-oxo-7′,8′-dihydro-6′H-spiro[cyclohexane-1,9′-furo[2,3-f]quinazoline]-2′-carboxamide]	0.1 to 1
